Laboratory results from PMC4336329 (PLoS ONE, 2015).
Among all 310,000 compounds or so, about 2,200 (0.71%) showed an effect of 50% or more. Effects have a minus sign here. The list shows a part of the results.

target: human ether-à-go-go-related gene (hERG) potassium channel (human, UniProt Q12809); assay: primary screen, population patch clamp on CHO cells stably expressing hERG
Sequence (Q12809 whole entry, looked up): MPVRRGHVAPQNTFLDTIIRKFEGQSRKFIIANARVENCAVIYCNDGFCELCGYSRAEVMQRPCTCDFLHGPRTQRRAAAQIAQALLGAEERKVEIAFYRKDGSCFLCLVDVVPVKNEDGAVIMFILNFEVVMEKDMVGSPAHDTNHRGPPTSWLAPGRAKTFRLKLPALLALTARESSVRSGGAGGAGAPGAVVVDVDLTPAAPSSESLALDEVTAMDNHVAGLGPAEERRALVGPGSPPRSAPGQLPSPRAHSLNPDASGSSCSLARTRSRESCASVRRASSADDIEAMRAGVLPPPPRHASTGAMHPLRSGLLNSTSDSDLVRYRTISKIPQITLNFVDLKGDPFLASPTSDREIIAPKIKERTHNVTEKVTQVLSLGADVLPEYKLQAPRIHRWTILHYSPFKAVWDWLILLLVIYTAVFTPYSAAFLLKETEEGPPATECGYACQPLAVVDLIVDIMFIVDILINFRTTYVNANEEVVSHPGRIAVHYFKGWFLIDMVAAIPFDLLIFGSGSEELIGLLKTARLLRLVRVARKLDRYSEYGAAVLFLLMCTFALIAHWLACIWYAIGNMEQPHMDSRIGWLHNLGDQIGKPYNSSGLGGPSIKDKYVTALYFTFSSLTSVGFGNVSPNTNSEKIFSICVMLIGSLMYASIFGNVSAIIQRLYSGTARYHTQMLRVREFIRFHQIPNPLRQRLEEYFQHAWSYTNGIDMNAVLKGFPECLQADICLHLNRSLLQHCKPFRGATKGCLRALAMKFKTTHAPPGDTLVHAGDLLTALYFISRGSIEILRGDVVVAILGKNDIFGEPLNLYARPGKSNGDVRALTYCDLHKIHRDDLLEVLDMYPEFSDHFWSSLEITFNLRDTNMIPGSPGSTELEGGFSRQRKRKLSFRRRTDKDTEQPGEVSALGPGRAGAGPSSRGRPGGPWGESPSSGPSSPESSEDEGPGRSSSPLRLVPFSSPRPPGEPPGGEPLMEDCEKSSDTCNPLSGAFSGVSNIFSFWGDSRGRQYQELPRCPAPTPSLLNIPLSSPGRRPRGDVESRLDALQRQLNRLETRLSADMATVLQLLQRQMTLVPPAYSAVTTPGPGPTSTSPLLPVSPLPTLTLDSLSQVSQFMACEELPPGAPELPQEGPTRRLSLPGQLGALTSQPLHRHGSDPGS

SMILES	hERG current change (%, negative = inhibition) at 1uM
CCOCCCn1c(SCc2nc3sc(C(=O)O)c(C)c3c(=O)[nH]2)nnc1-c1ccc(Cl)cc1	12.6%
CCC(C)(C)NC(=O)CN(C(=O)CCC(=O)Nc1ccccn1)c1ccc2c(c1)OCO2	7.1%
CCOc1ccc(NS(=O)(=O)c2ccc3c(c2)CCN3C(=O)CCC(=O)O)cc1	10.1%
Cc1ccc(-c2ccccc2)n1-c1cccc(C(=O)O)c1	10.4%
CSc1nc(C)c(CCOCc2ccccc2)c(=O)[nH]1	15.8%
CC(C(=O)O)n1cc(Cl)cn1 (stereo not drawn)	3.56%
NS(=O)(=O)c1ccc(NC(=O)/C=C/c2ccccc2Cl)cc1	12.5%
N/C(=N\OC(=O)N1c2ccccc2Sc2ccccc21)c1ccccc1	14.8%
CN(C)c1ccc(C(=O)Nc2ccc(O)c3c(=O)cc(-c4ccccc4Cl)oc23)cc1	2.71%
NC(=O)CSc1nnc2ccc(-c3ccc(F)cc3)nn12	7.98%
O=C(C1CC1)N1CCc2cc(S(=O)(=O)NCCCN3CCCCC3)ccc21	9.04%
Cc1cc(C)nc(NC(=O)CSc2ccccn2)n1	0.769%
CS(=O)(=O)N1CCN(c2ccc(NC(=S)NC(=O)c3ccccc3[N+](=O)[O-])cc2)CC1	16.9%
COc1ccc(N(CC(=O)N2CCOCC2)S(=O)(=O)c2ccccc2)cc1Cl	0.0557%
CCOC(=O)C1=C(CSc2nc(-c3ccccc3)ccc2C#N)OC(N)=C(C#N)C1c1ccccc1 (stereo not drawn)	-3.63%
CCOC(=O)Cc1c(C)nc2cc(-c3ccc(Cl)cc3)[nH]n2c1=O	13.4%
Cn1cc(CCC(=O)N2CCCC(C(=O)c3cccc4ccccc34)C2)cn1 (stereo not drawn)	5.01%
Cc1oc(-c2ccccc2Cl)nc1CSCC(=O)NC1CC1	-0.184%
Cn1c(SCC(=O)Nc2ccc(Br)cn2)nnc1C1CC1	17.8%
CC(SCc1ccccc1)C(=O)N/N=C/c1cccs1 (stereo not drawn)	13.8%
O=C(NCCc1ccccn1)c1ccc(OC2CCN(Cc3ccccn3)CC2)cc1	12.8%
O=C(CCC(=O)c1ccc(Cl)s1)Nc1ncccc1O	5.07%

SMILES	hERG current change (%, negative = inhibition) at 1uM
CC(=O)Nc1ccc(S(=O)(=O)N(C)CC(=O)NCCC2=CCCCC2)cc1	10.3%
C=CCn1cnc2c(c1=O)c1nc3ccccc3nc1n2/N=C/c1cccc(OC)c1OC	6.54%
CN(C)c1nc(Cl)cc(N2CCOCC2)n1	7.09%
CCN1CCN(C(=O)c2cc3cc([N+](=O)[O-])ccc3oc2=O)CC1	-1.11%
CCn1nnc2cc(C(=O)Nc3cc(Cl)ccc3C)ccc21	-2.41%
Cc1ccc2nc(CSc3nnc(-c4ccco4)n3-c3ccccc3)cc(=O)n2c1	-2.87%
Cc1cc(Nc2cccc(Cl)c2)nc(-c2ccccc2O)n1	12.1%
COc1ccc(C2c3c(c(C)c(C)oc3=O)Oc3c(C)c(C)oc(=O)c32)cc1	14.7%
Cc1ccc(OCc2nc(C#N)c(N3CCCC3)o2)cc1	-10.7%
Oc1ccccc1N=Cc1c(O)ccc2oc3c(c12)CCCC3	18.2%
CC(C)CCOc1ccc(C(=O)N2CCN(c3ncccn3)CC2)cc1	9.53%
O=C1NC2(CCCCC2)C(=O)N1CCN1C(=O)c2ccccc2C1=O	17.7%
COC(=O)c1cc(Br)c(=O)n(CCN2CCCC2)c1	8.37%
CCCC(=O)N(Cc1cc(=O)[nH]c2ccccc12)c1ccccc1C	13.1%
O=C(NC1CCCCC1)C(c1cccnc1)N(C(=O)CCl)c1ccccc1Cl (stereo not drawn)	4.69%
CSc1ccc(/C=N/N(C)S(=O)(=O)c2ccc(C)cc2)cc1	12.6%
NC(=O)c1ccsc1NC(=O)COC(=O)c1cc(=O)[nH]c2ccccc12	15.4%
COc1ccc(OC)c(NC(=O)C2CCCN2S(=O)(=O)c2cccc3nsnc23)c1 (stereo not drawn)	17%
Cc1ccc(-c2nnc(SCC(C)C)n2C)cc1	6.53%
O=C(Oc1ccccc1-c1csnn1)c1cccs1	4.7%
CC(NC(=O)CCNC(=O)c1ccccc1Cl)c1ccc(-n2ccnc2)cc1 (stereo not drawn)	-4.42%
CCC(C(=O)OC)n1cnc2c(nnn2-c2ccc(F)cc2)c1=O (stereo not drawn)	3.75%

SMILES	hERG current change (%, negative = inhibition) at 1uM
CCOC(=O)Cn1nnc2c(sc3nc4c(c(-c5ccccc5)c32)CCC4)c1=O	13.8%
NC(=O)C1CCN(c2oc(/C=C/c3ccccc3)nc2S(=O)(=O)c2ccccc2)CC1	2.59%
Cc1ccc2nc(SCC(=O)NC3CCCc4ccccc43)[nH]c2c1 (stereo not drawn)	13.7%
O=C(COc1ccccc1)Nc1cc(NC(=O)COc2ccccc2)cc(C(=O)O)c1	9.77%
CC1=C/C(=N\OS(=O)(=O)c2ccccc2)C=CC1=O	8.88%
CCC(=O)Nc1sc(Cc2ccc3c(c2)OCO3)c(C)c1C(N)=O	8.83%
COc1ccc(C/C(N)=N/OC(=O)C(c2ccccc2)c2ccccc2)cc1OC	-10.1%
Cc1cc(NC(=O)CCN2C(=O)/C(=C\c3ccccc3)SC2=S)no1	5.57%
CCN(CC)c1ccc(N2C(=O)CSC2=S)cc1	-4.65%
Cc1ccc(S(=O)(=O)NC2(C(F)(F)F)C(=O)Nc3c2c(=O)n(C)c(=O)n3C)cc1 (stereo not drawn)	14.7%
CCCCn1c(N)c(N(CC(C)C)C(=O)CSCc2c(C)noc2C)c(=O)[nH]c1=O	5.74%
c1ccc(CN2CCN(c3nc4ccccc4n4cnnc34)CC2)cc1	10.8%
C=CCSC1=C(C#N)C2(CCCCC2)C(C#N)C(=O)N1 (stereo not drawn)	3.45%
COc1ccccc1CCc1nnc(CCC(=O)NC(C)Cc2ccsc2)o1 (stereo not drawn)	5.34%
CC(Oc1ccc(Cl)cc1Cl)C(=O)Nc1ncccn1 (stereo not drawn)	13.5%
CCc1cccc(CC)c1N1C(=O)c2cc(N3CCOCC3)c([N+](=O)[O-])cc2C1=O	5.63%
COc1ccc(NC(=O)C2CCCN(S(=O)(=O)c3ccc4[nH]c(=O)ccc4c3)C2)cc1 (stereo not drawn)	10.8%
COc1ccc(-c2nn(C)c(=O)c3ccccc23)cc1CNC(=O)C1CCCCC1	0.228%
CCCCOC(=O)c1[nH]c2c(c1C)C(=O)CC(c1cc(OC)c(OC)c(OC)c1)C2 (stereo not drawn)	11.6%
O=C(CN(c1ccc(F)cc1)S(=O)(=O)c1ccc2c(c1)OCCO2)NCc1cccnc1	11.9%
O=C1C=C(c2ccc(O)cc2)C[C@@H](c2ccc3c(c2)OCO3)C1	1.45%
CN(C)S(=O)(=O)c1ccc(Cl)c(NC(=O)COC(=O)/C=C/c2cnc3ccccc3n2)c1	8.52%

SMILES	hERG current change (%, negative = inhibition) at 1uM
Cc1c(NC(=O)CCCOc2ccccc2)cccc1[N+](=O)[O-]	9.61%
CCOc1ccc(C(=O)Cn2cnc3ccccc3c2=O)cc1	8.35%
O=c1c2c(-c3cccs3)csc2ncn1-c1ccccc1	8.07%
NCCCC[C@H]1NC(=O)[C@H](CCC(=O)O)NC(=O)c2cc([N+](=O)[O-])cc(I)c2OCC[C@@H](C(N)=O)NC1=O	15.1%
Cc1cc(C)cc(Oc2ccc(-c3nnc(-c4ccccc4)o3)cc2[N+](=O)[O-])c1	12.3%
O=C1N[C@@H](Cc2ccccc2)C(=O)N2[C@@H]3N(S(=O)(=O)c4ccc(F)cc4)c4ccccc4[C@]3(Br)C[C@@H]12	7.4%
Cc1sc2ncn(C(C)C(=O)OC3CCCCC3)c(=O)c2c1C (stereo not drawn)	9.67%
Cc1ccc(-n2c(-c3ccccc3)n[nH]c2=S)cc1	14.8%
COc1cccc(C2C(C(=O)c3ccc(C)o3)=C(O)C(=O)N2CCN2CCOCC2)c1 (stereo not drawn)	18.1%
Cc1cccc(C)c1NC(=S)N1CC(C)OC(C)C1 (stereo not drawn)	6.95%
C[C@@H]1C[C@@H]([C@H](O)CC2CC(=O)NC(=O)C2)C(=O)[C@@H](C)C1	13.3%
Clc1ccc(C2=Nc3cc(Cl)ccc3OC2)cc1	12.4%
CCc1ccc(-c2cc3c(=O)n(CC(=O)N4CCCC4)nc(C)n3n2)cc1	8.3%
O=C(Nn1cnc2ccccc2c1=O)c1ccccc1[N+](=O)[O-]	9.96%
COCC(=O)Nc1cc(C(=O)Nc2ccccc2C)ccc1Cl	10.6%
COc1ccccc1CC(=O)Nc1cccc(F)c1	12.4%
CCC(=O)c1cn(CC(=O)Nc2ccccc2Cl)c2ccccc12	15.9%
O=C(O)c1nccnc1C(=O)NCCc1c[nH]c2ccccc12	0.225%
O=S(=O)(CCSc1nc2ccccc2o1)Cc1ccccc1	8.69%
CCNC(=O)c1ccccc1NC(=O)c1cccc(S(=O)(=O)N2CCOCC2)c1	-43.8%
O=C(Nc1ccc2[nH]c(=O)[nH]c2c1)c1ccc(Br)o1	4.04%
